We go through 8 substances from article PMC11955279.

Sequences of proteins named here, by UniProt entry; tags and fusion partners are left off. A change or cut given only in a name is not applied to a line headed by its entry. A line that says so, or that is headed by a name, gives the form on record, which may keep a tag or linker.
UniProt P35631: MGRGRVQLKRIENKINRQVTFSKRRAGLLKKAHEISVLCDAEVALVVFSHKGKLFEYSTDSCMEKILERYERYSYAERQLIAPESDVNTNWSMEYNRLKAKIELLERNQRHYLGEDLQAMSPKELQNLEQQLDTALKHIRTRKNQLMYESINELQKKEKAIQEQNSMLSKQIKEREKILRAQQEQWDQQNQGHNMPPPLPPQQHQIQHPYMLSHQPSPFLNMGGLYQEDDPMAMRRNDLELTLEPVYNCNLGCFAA
UniProt O22456: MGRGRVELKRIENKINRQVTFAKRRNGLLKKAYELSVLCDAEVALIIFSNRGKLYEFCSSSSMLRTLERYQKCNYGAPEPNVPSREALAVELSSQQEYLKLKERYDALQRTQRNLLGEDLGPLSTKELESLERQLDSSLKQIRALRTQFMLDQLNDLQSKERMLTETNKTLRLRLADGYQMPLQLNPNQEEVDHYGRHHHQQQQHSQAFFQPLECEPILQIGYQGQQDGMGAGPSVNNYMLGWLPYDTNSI
AtSEP3-T1 (Leu to Ala at position 99), in pGADT7 (O22456, form named): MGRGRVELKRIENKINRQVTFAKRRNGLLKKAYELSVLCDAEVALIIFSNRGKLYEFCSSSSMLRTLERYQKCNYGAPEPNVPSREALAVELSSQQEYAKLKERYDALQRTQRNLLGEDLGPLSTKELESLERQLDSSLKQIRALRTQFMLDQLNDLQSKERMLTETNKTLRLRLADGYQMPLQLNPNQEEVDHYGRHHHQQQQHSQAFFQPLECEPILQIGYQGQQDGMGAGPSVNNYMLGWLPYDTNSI
AtSEP3-T2 (Leu to Ala at positions 99 and 101), in pGADT7 (O22456, form named): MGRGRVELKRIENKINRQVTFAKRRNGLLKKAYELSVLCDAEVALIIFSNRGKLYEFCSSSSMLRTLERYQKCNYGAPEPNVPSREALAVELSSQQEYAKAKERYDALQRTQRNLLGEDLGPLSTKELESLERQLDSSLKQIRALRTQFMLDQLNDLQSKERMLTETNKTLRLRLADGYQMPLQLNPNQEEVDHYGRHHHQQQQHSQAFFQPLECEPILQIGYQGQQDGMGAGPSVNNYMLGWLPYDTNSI
AtSEP3-T3 (Leu to Ala at positions 99, 101, and 108), in pGADT7 (O22456, form named): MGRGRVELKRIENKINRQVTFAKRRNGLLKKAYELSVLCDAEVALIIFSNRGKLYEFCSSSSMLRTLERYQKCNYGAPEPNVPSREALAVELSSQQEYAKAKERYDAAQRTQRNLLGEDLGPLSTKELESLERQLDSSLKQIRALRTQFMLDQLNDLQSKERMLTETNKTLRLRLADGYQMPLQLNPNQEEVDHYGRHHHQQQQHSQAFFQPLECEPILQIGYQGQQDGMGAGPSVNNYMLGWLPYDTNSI
AtSEP3-T4 (Leu to Ala at positions 99, 101, 108, and 115), in pGADT7 (O22456, form named): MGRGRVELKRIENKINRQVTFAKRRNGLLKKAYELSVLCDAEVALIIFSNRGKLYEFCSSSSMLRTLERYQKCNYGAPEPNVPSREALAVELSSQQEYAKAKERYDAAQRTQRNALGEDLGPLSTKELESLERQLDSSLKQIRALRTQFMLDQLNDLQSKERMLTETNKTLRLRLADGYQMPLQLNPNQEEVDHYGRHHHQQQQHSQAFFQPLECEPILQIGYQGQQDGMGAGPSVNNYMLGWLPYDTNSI
AtSEP3-T5 (Leu to Ala at positions 99, 101, 108, 115, and 116), in pGADT7 (O22456, form named): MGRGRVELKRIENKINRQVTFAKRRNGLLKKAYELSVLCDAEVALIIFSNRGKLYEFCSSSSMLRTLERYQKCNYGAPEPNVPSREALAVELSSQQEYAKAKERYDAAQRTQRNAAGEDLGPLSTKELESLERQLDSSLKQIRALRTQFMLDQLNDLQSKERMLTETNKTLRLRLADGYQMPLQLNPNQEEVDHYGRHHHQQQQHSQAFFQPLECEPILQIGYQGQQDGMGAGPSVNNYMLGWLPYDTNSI
AtSEP3-T5, in pSPYCE-35S/PUC (BiFC) (O22456, form named): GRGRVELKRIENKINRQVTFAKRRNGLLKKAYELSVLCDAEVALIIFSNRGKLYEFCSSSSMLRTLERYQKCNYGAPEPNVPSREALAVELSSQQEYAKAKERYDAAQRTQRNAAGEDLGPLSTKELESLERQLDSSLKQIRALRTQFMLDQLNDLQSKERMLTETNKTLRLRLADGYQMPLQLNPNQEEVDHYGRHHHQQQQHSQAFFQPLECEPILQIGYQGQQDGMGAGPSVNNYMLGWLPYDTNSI

Results are given in words; binding and its absence hold for the method and conditions named. For some assays here: In cells and extracts the contact can be indirect. Some results given as binding are weak or reduced against the parent protein; the word gives no strength.

The target in assay [1] is AtAP1 (APETALA1), in pGBKT7 (Arabidopsis thaliana) (UniProt P35631). The assay can be described thus: two-hybrid; β-galactosidase activity (ONPG) of the yeast two-hybrid colonies in liquid culture; Z-buffer pH 7.0, 30°C, 10 min; control AD + BD.
Assay [2] shares this target. The assay can be described thus: two-hybrid; yeast two-hybrid, colonies on deficient media; AtSEP3 forms in pGADT7, AtAP1 in pGBKT7.
The target of assay [3] is AtAP1, in pSPYNE-35S/PUC (BiFC) (Arabidopsis thaliana) (UniProt P35631). The assay can be described thus: split reporter; BiFC in the lower epidermis of tobacco leaves, Agrobacterium cultures mixed 1:1; confocal microscopy, excitation 488 nm, emission 505–530 nm.

Consider “AtSEP3 (…3), wild type, in pGADT7 (from UniProt O22456 1-251)”, for which the binding result in assay [1] and in assay [2] was “binds” each time.
Turning to “AtSEP3, wild type, in pSPYCE-35S/PUC (BiFC) (from UniProt O22456 2-251)”, the binding entry in assay [3] was “binds”.
In the case of “AtSEP3-T1 (Leu to Ala at position 99), in pGADT7 (from UniProt O22456 1-251)”, the binding entry in assay [1] and in assay [2] was “binds” each time.
On to “AtSEP3-T2 (Leu to Ala at positions 99 and 101), in pGADT7 (from UniProt O22456 1-251)”, for which the binding result in assay [1] and in assay [2] was “binds” in each case.
“AtSEP3-T3 (Leu to Ala at positions 99, 101, and 108), in pGADT7 (from UniProt O22456 1-251)”: the binding result in assay [1] and in assay [2] was “binds” in each case.
Turning to “AtSEP3-T4 (Leu to Ala at positions 99, 101, 108, and 115), in pGADT7 (from UniProt O22456 1-251)”, the binding entry in assay [1] and in assay [2] was “binds” in each case.
As to “AtSEP3-T5 (Leu to Ala at positions 99, 101, 108, 115, and 116), in pGADT7 (from UniProt O22456 1-251)”, the binding result in assay [1] and in assay [2] was “no binding” in each case.
With “AtSEP3-T5, in pSPYCE-35S/PUC (BiFC) (from UniProt O22456 2-251)”, the binding entry in assay [3] is given as “no binding”.
